Assay results from PMC7819943, “Rice protein-binding microarrays: a tool to detect cis-acting elements near promoter regions in rice”.
This is one part of the list.

Molecular target: T1, OsWOX13 (Oryza sativa, UniProt Q5QMM3 1-267)
T1 sequence: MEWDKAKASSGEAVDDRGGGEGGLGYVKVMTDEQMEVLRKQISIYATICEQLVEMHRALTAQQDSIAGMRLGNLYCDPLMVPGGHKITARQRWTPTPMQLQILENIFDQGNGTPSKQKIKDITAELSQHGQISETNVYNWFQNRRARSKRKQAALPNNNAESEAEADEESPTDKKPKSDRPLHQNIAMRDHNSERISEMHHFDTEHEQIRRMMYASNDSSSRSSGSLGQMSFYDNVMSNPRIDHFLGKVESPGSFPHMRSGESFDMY
Experiment: protein-binding microarray (RPBM); PBS, 2% BSA, 51.3 ng/ul salmon testes DNA, 50 uM zinc acetate, 200 nM TF, 25 C, 1 h; high values mean tight binding
Conditions: protein: recombinant; tags: N-terminal polyhistidine and DsRed monomer fusion (pET32a); label: CyDye5-dUTP incorporated in the synthesized complementary strand; 3' TTTTT single-stranded linker to array surface; dsDNA, one strand shown
Summary of the method: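 Per-feature fluorescence intensity (arbitrary units), read on an Axon 4000B scanner, is the binding signal. Transcription factors carrying an N-terminal polyhistidine tag and DsRed fusion were expressed in E. coli BL21-CodonPlus and purified on Ni–NTA. A custom Agilent array, made double-stranded by primer extension with Cy5-dUTP and blocked with 2% BSA, was incubated with 200 nM protein in PBS, 2% BSA, salmon testes DNA and 50 µM zinc acetate at 25 °C for 1 h and then washed.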

Going from “CCATGAATAACAAAATGATTAGAAGTGGAAATCCTTCATGCGGAGTCACCTAGTGCAG” to “ATAACTATTAATGTGATATGGAAGAAATTAATGGTGTCCACGGAGTCACCTAGTGCAG”, the binding signal falls from 7440 fluorescence intensity (a.u.) to 5200 fluorescence intensity (a.u.).

First: ATTATTAACATGTGACAGCGACTCATTTTATGATATATTGCGGAGTCACCTAGTGCAG
Second: ACAATTGATACCCCTGACACTGATTGAAGCATTGTGTGGCCGGAGTCACCTAGTGCAG
The binding signal of the first is lower: 4890 fluorescence intensity (a.u.) for the first, 33200 fluorescence intensity (a.u.) for the second.

Compared with “CCCAATTAACGTCCAGATCAATCGAATCATCCCTCCCCTACGGAGTCACCTAGTGCAG”, “TACAACAAATCAATAATACTCAATTTCCATGTAGTTTGATCGGAGTCACCTAGTGCAG” is lower in binding signal: 11400 fluorescence intensity (a.u.) for the first, 7890 fluorescence intensity (a.u.) for the second.

Going from “CAAGATAGCAATTGATTTACAGCGTATCGATCTATTTGTACGGAGTCACCTAGTGCAG” to “AGCCATCGATTTGAGATTTGATTAGTAATTCGGAGGAGGACGGAGTCACCTAGTGCAG”, the binding signal falls from 24500 fluorescence intensity (a.u.) to 20000 fluorescence intensity (a.u.).

Going from “GCAATCAATTATTCCGCCGCTCTCCAGCGACGCAATTGCGCGGAGTCACCTAGTGCAG” to “TAGATTACTAGATTAGCTAGGTTCTTGTAGTATACGTAGCCGGAGTCACCTAGTGCAG”, the binding signal falls from 11700 fluorescence intensity (a.u.) to 4940 fluorescence intensity (a.u.).

Compared with “GTGTCCATCAATTAATAACAGAAAGAAGAAGAGGATCCGGCGGAGTCACCTAGTGCAG”, “GAGTTACGCGCGCTTAATTAGCTTAGACACAGCTAGAGGACGGAGTCACCTAGTGCAG” is lower in binding signal: 22800 fluorescence intensity (a.u.) for the first, 4350 fluorescence intensity (a.u.) for the second.

First: TGATGTTAAATTATGTCTTTTGTTACCTACAGTCAAAGGGCGGAGTCACCTAGTGCAG
Second: TTAGATTTGTCATTAATCACCGAATCCAAATTAAGGCACTCGGAGTCACCTAGTGCAG
The binding signal of the first is lower: 6580 fluorescence intensity (a.u.) for the first, 30700 fluorescence intensity (a.u.) for the second.

Going from “AACCAGATTGTAAACTGTGAAATTCGGTTCGATATGAATGCGGAGTCACCTAGTGCAG” to “GGACCATAGATTAATCATTTAAGCACTAATTAAGTGAGGACGGAGTCACCTAGTGCAG”, the binding signal rises from 4890 fluorescence intensity (a.u.) to 19800 fluorescence intensity (a.u.).

Compared with “TAAATTAGATGAAAATAAATTTGAATAGATGCTTGTCCAGCGGAGTCACCTAGTGCAG”, “CTAAACAATTTAGAATGACAACTATACTACGACGGAGGGACGGAGTCACCTAGTGCAG” is lower in binding signal: 21500 fluorescence intensity (a.u.) for the first, 5960 fluorescence intensity (a.u.) for the second.

Compared with “ATGTACTAGTAATTGAGTGGAGCTTTGATCGATTGAAAGGCGGAGTCACCTAGTGCAG”, “TACTGATTTTCTTTATGTCTCTTTGTGGTCCCTTTGCAGTCGGAGTCACCTAGTGCAG” is higher in binding signal: 17100 fluorescence intensity (a.u.) for the first, 18300 fluorescence intensity (a.u.) for the second.

First: GTGCTTAATTTATTGGTATTTGTTTGTTACTTTGATTACGCGGAGTCACCTAGTGCAG
Second: GGACGTATATATACATTGATTAATACCAAATCCTCAGCACCGGAGTCACCTAGTGCAG
The binding signal of the first is higher: 36400 fluorescence intensity (a.u.) for the first, 4520 fluorescence intensity (a.u.) for the second.

Compared with “ATGTGATGATGAGTAGTGGGTTAGTTGGTAGGTAGGCCGCCGGAGTCACCTAGTGCAG”, “AACACTTGATTGGATCAGGAGGTACAAATGAATTATTTATCGGAGTCACCTAGTGCAG” is higher in binding signal: 9740 fluorescence intensity (a.u.) for the first, 27800 fluorescence intensity (a.u.) for the second.

Compared with “GGATTGATTAGGATTAGGATTAGAGCATTGTTCCGGTCCACGGAGTCACCTAGTGCAG”, “CATACGCAACTTAATTATCTACTCCTTCTGGGCATAATTACGGAGTCACCTAGTGCAG” is lower in binding signal: 32200 fluorescence intensity (a.u.) for the first, 3800 fluorescence intensity (a.u.) for the second.

First: GCTATACAATTAAATAGATAATCCACGACAATAATATCCTCGGAGTCACCTAGTGCAG
Second: CAACTACATTTATCTTTCTCAATCAAGTAATCTCTCATGTCGGAGTCACCTAGTGCAG
The binding signal of the first is lower: 3700 fluorescence intensity (a.u.) for the first, 7250 fluorescence intensity (a.u.) for the second.

First: GAAGCAAACAAACATGATTGATAACAGAATGGTCCTTTCCCGGAGTCACCTAGTGCAG
Second: GTAAACTTTAATTAACCCTGTGCACATGGCATCCTCTTATCGGAGTCACCTAGTGCAG
The binding signal of the first is higher: 28000 fluorescence intensity (a.u.) for the first, 14000 fluorescence intensity (a.u.) for the second.

Going from “CTAAGAGTAAGTAGATTGATTTTAACCAAAATCAAAACGACGGAGTCACCTAGTGCAG” to “GACCAAATCATGGCCTAATCACGCGAAAACCCGCGCTTTCCGGAGTCACCTAGTGCAG”, the binding signal rises from 14200 fluorescence intensity (a.u.) to 17000 fluorescence intensity (a.u.).

Going from “CCGTAATTGAGAGTGAAACTAAAATCATCTCAGTCAAATTCGGAGTCACCTAGTGCAG” to “CTAATTAACCAGTAAATTATAAACAAAAGCGTATTTTGAACGGAGTCACCTAGTGCAG”, the binding signal falls from 32400 fluorescence intensity (a.u.) to 24700 fluorescence intensity (a.u.).

Going from “TCAATTATGATTATAGATAATTACGATGGACGACTGTCAACGGAGTCACCTAGTGCAG” to “AGTATATCTACAATAATTATAATTTATTGCAACTACGCTGCGGAGTCACCTAGTGCAG”, the binding signal rises from 16600 fluorescence intensity (a.u.) to 22000 fluorescence intensity (a.u.).

Going from “ACAGTTTGATTAGTGCCAAGGATCAAACATTTTCCTACTGCGGAGTCACCTAGTGCAG” to “CTTAATTTGGCACTGCCCAAGAAAATTTTGACAAGTACTTCGGAGTCACCTAGTGCAG”, the binding signal falls from 23700 fluorescence intensity (a.u.) to 9440 fluorescence intensity (a.u.).

Going from “ATAAGGAGATTGAGCTTGACCAAGTACAGTCTCAGGACATCGGAGTCACCTAGTGCAG” to “CGAATTAACTAGATCATATTACTCTTTCATGCAATAAACACGGAGTCACCTAGTGCAG”, the binding signal rises from 3560 fluorescence intensity (a.u.) to 4320 fluorescence intensity (a.u.).

First: AAGGATAGACAATTTGCTGAGCTTTATAATGTTGGCATCACGGAGTCACCTAGTGCAG
Second: TTAAGCCTAATTAATCTGTCATTAGTAAATGTTTACTGTACGGAGTCACCTAGTGCAG
The binding signal of the first is lower: 6480 fluorescence intensity (a.u.) for the first, 21500 fluorescence intensity (a.u.) for the second.
